This is one part of the list. Shown are side measurements of this screen, not its main read-out; they come without a call. Most of these compounds were active or inconclusive in the main read-out, so they are no random draw.

The test can be described thus: qHTS Assay for Lipid Storage Modulators (AID 1519). Conditions: Drosophila S3 cells, BODIPY lipid droplet/cell ratio, laser cytometry; measured here: lipid channel max response; cells loaded with oleic acid. In outline: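 Cells seeded at 5,000 per well were treated with compounds over a concentration series and loaded with oleic acid (400 uM, as added). Lipid droplet fluorescence (488 nm excitation, 500-530 nm channel) was read by laser-scanning cytometry and normalized to 20 uM Triacsin C.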
Background: Quantitative high-throughput screening tests each substance at several concentrations.
On to `N#CCCn1c(=O)c(-c2ccccc2)nc2cnc(Nc3ccccc3)nc21`, for which the max response was -64.1%. Turning to `O=c1c(-c2ccccc2)nc2cnc(N3CCNCC3)nc2n1Cc1ccc(F)cc1`, the max response was 31.7%. Regarding `COc1cc2c(cc1OC)C(=O)N(C)CC2`, the max response turned out to be 67.3%. `COc1ccc(-n2c(=O)c(CCc3ccccc3)nc3cnc(N4CCNCC4)nc32)cc1`: the max response amounted to 42.9%. In the case of `COc1cccc(-c2ccc3ncnc(NCc4cccnc4)c3c2)c1` it was 6.35%; in that of `CN(Cc1ccco1)c1ccnc(-c2cccc(C#N)c2)n1`, 38.4%. Take `CNCC(O)c1cccc(O)c1` (configuration not stated): the max response came out at 47.7%. Regarding `Nc1nc2c(ncn2C2CC(O)C(CO)O2)c(=O)[nH]1` (configuration not stated), the max response was -42.8%. For the molecule `COc1cccc(Cn2c(=O)c(-c3cn(C)c4ccccc34)nc3cncnc32)c1`, the max response turned out to be 44.7%. Consider `CC(=O)Oc1c2c(c3c(c1CC=C(C)C)O[C@@]14C(=CC5CC1C(C)(C)OC4(C/C=C(\C)C(=O)O)C5=O)C3=O)OC(C)(CCC=C(C)C)C=C2` (some centres not stated), for which the max response was -80.1%. On to `Cc1ccc(S(=O)(=O)NCc2ccccc2)cc1`, for which the max response stood at 114%. Take `Cn1cc(-c2nc3cnc(OCc4ccccc4)nc3n(CCC#N)c2=O)c2ccccc21`: the max response came out at 39.6%. The same measure for `C[C@@H]1CNCCN1S(=O)(=O)c1cccc2cnccc12`: 112%; for `CN(C)C(=O)c1ccc(-c2nccc(N(C)Cc3ccco3)n2)cc1`: 48.6%; for `Cn1c(=O)c(-c2cccs2)nc2cnc(Oc3ccccc3)nc21`: -71.4%. `FC(F)(F)c1ccccc1-c1cncnc1NCc1ccccc1`: the max response came to 38%. In the case of `COc1ncc2nc(-c3ccc(Cl)cc3)c(=O)n(CCc3ccccc3)c2n1` it was 27.1%. In the case of `COc1cccc(Cn2c(=O)c(C)nc3cnc(N4CCOCC4)nc32)c1` it was 43.1%; in that of `O=c1c(O)c(-c2ccc(O)cc2)oc2cc(O)ccc12`, -55.7%. On to `O=c1c(CCc2ccccc2)nc2cncnc2n1C1CC1`, for which the max response stood at 44.3%. In the case of `N#CCCn1c(=O)c(CCc2ccccc2)nc2cnc(Oc3cccc(Cl)c3)nc21` it was 15.6%; in that of `c1ccc(CNc2ncnc3ccc(-c4ccoc4)cc23)cc1`, 36.5%.
